Data reported in the supplement of paper PMC7826260.
The other results are listed elsewhere or left out. Each Rep nickase domain was tested in vitro on the same pool of single strands at 3 µM enzyme and 37 °C for 1 h; the strands have 90 letters, of which the middle is given. The score is log2 (uncut reads / reads without enzyme); the lower, the more was cut; hits are not called. Because reads are shares of a total, they shift together; values above 0 arise when much of the pool is cut.

Tests used:
Experiment in all cases: uncleaved DNA left, log2 of reads against the no-enzyme library (log2 ratio); higher = less cleavage (more negative = more Rep cleavage of the k-mer); sequences stand for … in CTCGTCCG…ACCGGAGA
[1] = test system: T1, Rep nickase domain of Muscovy duck circovirus
T1 sequence (protein, residues 1-111, tag omitted): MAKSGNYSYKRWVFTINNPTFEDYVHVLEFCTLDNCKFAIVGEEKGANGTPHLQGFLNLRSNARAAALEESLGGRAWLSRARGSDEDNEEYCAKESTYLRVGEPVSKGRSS
Description: (§1)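 A pool of 90-nt single-stranded DNAs with seven random bases just before the constant AC of the nick site (name = the seven bases) was cut by 3 µM recombinant His6-SUMO-tagged Rep nickase domain (300 nM DNA, 50 mM HEPES pH 8.0, 50 mM NaCl, 1 mM MnCl2, 1 h, 37 °C, three replicates). Uncut DNA was amplified and sequenced.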

[2] = test system: T2, Rep nickase domain of banana bunchy top virus
T2 sequence (protein, residues 1-94, tag omitted): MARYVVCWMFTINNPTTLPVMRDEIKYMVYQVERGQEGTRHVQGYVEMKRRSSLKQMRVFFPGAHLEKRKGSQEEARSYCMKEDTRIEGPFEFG
Description: as §1

[3] = test system: T3, Rep nickase domain of cabbage leaf curl virus
T3 sequence (protein, residues 1-116, tag omitted): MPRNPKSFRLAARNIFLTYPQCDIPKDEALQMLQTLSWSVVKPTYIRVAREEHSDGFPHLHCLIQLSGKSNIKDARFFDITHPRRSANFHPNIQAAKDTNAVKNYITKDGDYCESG
Description: as §1

[4] = test system: T4, Rep nickase domain of chickpea chlorotic dwarf virus
T4 sequence (protein, residues 1-124, tag omitted): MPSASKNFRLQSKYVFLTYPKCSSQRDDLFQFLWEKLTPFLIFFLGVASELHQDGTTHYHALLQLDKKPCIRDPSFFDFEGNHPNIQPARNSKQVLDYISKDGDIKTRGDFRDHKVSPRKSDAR
Description: as §1

[5] = test system: T5, Rep nickase domain of faba bean necrotic yellows virus
T5 sequence (protein, residues 1-98, tag omitted): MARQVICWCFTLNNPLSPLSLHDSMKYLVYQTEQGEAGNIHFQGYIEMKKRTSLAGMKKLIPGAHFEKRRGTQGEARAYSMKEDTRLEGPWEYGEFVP
Description: as §1

[6] = test system: T6, Rep nickase domain of maize striate mosaic virus
T6 sequence (protein, residues 1-117, tag omitted): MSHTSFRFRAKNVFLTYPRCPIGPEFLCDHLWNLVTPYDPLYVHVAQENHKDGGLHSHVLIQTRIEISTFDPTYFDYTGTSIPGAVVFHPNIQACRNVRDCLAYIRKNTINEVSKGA
Description: as §1

[7] = test system: T7, Rep nickase domain of porcine circovirus 2
T7 sequence (protein, residues 2-116, tag omitted): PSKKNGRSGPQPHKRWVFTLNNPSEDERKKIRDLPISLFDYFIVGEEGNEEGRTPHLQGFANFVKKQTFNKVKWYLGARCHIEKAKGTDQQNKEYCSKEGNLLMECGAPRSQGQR
Description: as §1

[8] = test system: T8, Rep nickase domain of tomato golden mosaic virus
T8 sequence (protein, residues 1-124, tag omitted): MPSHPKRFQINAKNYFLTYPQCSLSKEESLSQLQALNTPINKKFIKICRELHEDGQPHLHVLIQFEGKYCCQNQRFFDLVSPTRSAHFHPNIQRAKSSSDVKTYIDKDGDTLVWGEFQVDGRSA
Description: as §1

[9] = test system: T9, Rep nickase domain of tomato yellow leaf curl virus
T9 sequence (protein, residues 1-136, tag omitted): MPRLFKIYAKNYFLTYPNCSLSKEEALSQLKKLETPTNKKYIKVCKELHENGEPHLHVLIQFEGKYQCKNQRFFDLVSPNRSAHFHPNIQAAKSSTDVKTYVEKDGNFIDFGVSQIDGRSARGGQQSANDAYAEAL
Description: as §1

[10] = test system: T10, Rep nickase domain of wheat dwarf virus
T10 sequence (protein, residues 1-137, tag omitted): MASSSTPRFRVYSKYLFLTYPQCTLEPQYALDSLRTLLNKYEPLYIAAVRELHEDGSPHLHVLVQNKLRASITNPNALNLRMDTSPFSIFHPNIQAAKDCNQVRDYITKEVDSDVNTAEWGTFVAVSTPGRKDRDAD
Description: as §1

Sequence	uncleaved DNA left (log2) [1]	uncleaved DNA left (log2) [2]	uncleaved DNA left (log2) [3]	uncleaved DNA left (log2) [4]	uncleaved DNA left (log2) [5]	uncleaved DNA left (log2) [6]	uncleaved DNA left (log2) [7]	uncleaved DNA left (log2) [8]	uncleaved DNA left (log2) [9]	uncleaved DNA left (log2) [10]
GGAGGGT	0.151	0.0374	0.51	1.33	0.104	1.67	0.249	0.189	-0.0424	0.0767
CCATGTT	-3.48	-0.557	-3.01	-2.87	-0.171	-1.67	-3.48	-1.27	-0.0294	-1.04
AAGGCAA	0.0974	0.127	0.224	0.659	0.0744	0.651	0.156	0.0685	4.64e-05	0.114
ATCTCAC	0.00979	0.0716	-0.124	-0.237	-0.0204	-0.476	0.147	0.0983	0.0231	0.0361
TTACAAA	0.0907	0.153	0.17	-0.997	0.0356	-0.0681	0.033	0.0951	0.126	0.0482
TATAATA	-0.0192	-0.0324	-0.147	-2.71	0.0711	-0.523	-0.204	0.106	0.00916	-0.0107
CTCCTTG	-0.0791	0.0259	-0.723	-1.5	-0.0932	-1.12	0.162	-0.02	0.0336	-0.0436
GTCTGCT	-0.156	0.102	0.102	0.246	0.0534	-0.0134	-0.939	0.0629	0.0218	-0.0321
CCGCGAA	-0.178	-0.227	-0.53	-0.536	-0.247	-0.909	-0.155	-0.18	-0.371	-0.324
ATGGGCA	-0.0545	-0.193	0.179	0.5	-0.126	0.175	-0.0433	-0.0191	-0.146	-0.0359
GGGAAGT	0.0767	0.157	0.818	2.05	0.0657	2.3	0.171	-0.0557	0.11	0.19
GATCCAG	0.0399	0.0584	-0.145	0.00906	-0.083	-0.605	0.138	-0.117	-0.00185	0.0874
TATCTTC	-0.155	0.0493	0.04	-0.409	-0.0217	-0.641	-0.0771	-0.161	0.0662	-0.0185
CCTGCGT	-0.0423	-0.112	-0.927	-0.753	-0.0923	-1.04	0.0539	-0.288	-0.141	-0.337
ACCAACC	-0.154	0.0208	-0.109	-1.5	0.041	-0.582	-0.235	0.059	-0.0365	0.0338
GGGAACC	-0.0508	0.045	0.69	1.83	-0.148	2.09	0.063	-0.0684	-0.0434	0.084

Sequence	uncleaved DNA left (log2) [1]	uncleaved DNA left (log2) [2]	uncleaved DNA left (log2) [3]	uncleaved DNA left (log2) [4]	uncleaved DNA left (log2) [5]	uncleaved DNA left (log2) [6]	uncleaved DNA left (log2) [7]	uncleaved DNA left (log2) [8]	uncleaved DNA left (log2) [9]	uncleaved DNA left (log2) [10]
CGAAGTC	0.0689	0.00584	-0.0941	-0.0999	0.0394	-0.352	0.0611	0.0661	-0.00488	-0.0387
CCATAAA	0.0449	0.0156	-0.173	-0.318	0.0109	-0.933	0.0189	0.0505	0.0563	-0.0496
CGCGGAA	-0.0494	-0.0727	-0.149	0.228	-0.0313	-0.27	0.104	-0.0508	-0.00675	-0.0759
ACGTACG	-0.0994	-0.00413	-0.874	-0.295	-0.00624	-0.936	0.0757	0.043	-0.0073	-0.0813
GCGAAAT	0.0788	0.0857	0.399	0.875	-0.0343	0.837	-0.00197	-0.00716	0.0113	0.132
GGATATG	0.0565	-0.0787	0.696	1.52	-0.0834	1.77	0.239	-0.0333	0.0637	0.12
GACTCGT	-0.00912	-0.0292	0.18	-0.0954	0.0668	0.0322	-2.71	0.0513	0.0143	0.0684
CATTTGC	0.0438	-0.04	-0.817	-0.41	0.107	-1.26	0.0821	-0.195	-0.00552	-0.0783
TCCGGCA	0.096	0.081	0.0581	-0.0831	0.0232	-0.499	-0.111	-0.0146	0.0072	-0.0702
AGAACGC	0.055	0.125	-0.0821	-0.0499	0.00766	-0.637	0.178	0.0519	-0.00867	0.0288
CACCCAC	-0.134	-0.0457	-0.205	-0.852	-0.272	-0.614	-0.767	-0.255	-0.169	-0.0827
TGCGGTT	-0.168	-0.268	-0.333	-0.709	-0.16	-0.553	-0.265	-0.179	-0.139	-0.169
GACCCTA	-0.00296	0.00792	0.628	0.749	0.00586	1.68	-0.0269	0.0122	0.0204	0.107
CTAACCT	-0.065	-0.0731	-0.335	-2.57	0.0253	-0.62	-0.972	-0.0137	0.0256	-0.108
CCCCACC	-0.154	-0.099	-0.0713	-0.665	-0.0504	-0.676	-0.258	-0.186	-0.284	-0.171
